{"source": "the supplement of paper PMC10338343", "note": "± gives the standard deviation. Whole data set: some 3,700 sequences, median “pre-steady-state target cleavage rate” near 0.02, cut for the highest 2% near 0.23. Only a part is listed here, and it is no random draw.", "data": [{"tested_on": "MILI (PIWIL2) piRISC loaded with Kctd7 piRNA (26 nt)", "experiment": "pre-steady-state target cleavage rate (min^-1); MIWI and MILI are mouse PIWI proteins and EfPiwi is from a freshwater sponge; tags in brackets are library labels; higher = faster piRNA-guided slicing of the target", "details": "guide: Kctd7 piRNA 5'p-UGUUAAUCUCUCAGAGAAGGUGACAG; auxiliary factor: 500 nM mouse GTSF1", "procedure,_shortened": "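Using HEPES–potassium acetate buffer at 33 °C, 1 nM active affinity-purified piRISC with a single synthetic guide was mixed with 0.1 nM transcribed, DNA-blocked target RNA library for 0–8 or 0–960 min, with or without 500 nM GTSF1 partner protein. Uncleaved targets were sequenced and normalised to depth and to weakly complementary targets, and three trials were pooled with k3 capped at 0.0001 min^-1. A burst-and-steady-state fit gave the pre-steady-state cleavage rate.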", "values": [{"sequence": "UAGUGACAGUCCUUCUCUGAGAGAUUAAAA", "pre-steady-state target cleavage rate": "0.00926 ± 0.0045"}, {"sequence": "UAGUGACACUCCUUCUCUGAGACAUUAACA", "pre-steady-state target cleavage rate": "0.0456 ± 0.0059"}, {"sequence": "UAGUGAGUCACCUUCUGAGAGAGAUUAUGA", "pre-steady-state target cleavage rate": "0.0241 ± 0.0098"}, {"sequence": "UAGUGAGUCUCCUUCUCUGAGACAUUAACA", "pre-steady-state target cleavage rate": "0.0525 ± 0.0096"}, {"sequence": "UAGUGUGUCACCUUCACUGACAGAUUAACA", "pre-steady-state target cleavage rate": "0.062 ± 0.0083"}, {"sequence": "UAGUGACACAUCCUUCUCUGAGAGAUUAACA", "pre-steady-state target cleavage rate": "0.101 ± 0.017"}, {"sequence": "UAGUGAGUCACCAUCUCUGAGUGAUUAACA", "pre-steady-state target cleavage rate": "0.00578 ± 0.0041"}, {"sequence": "UAGUGACAGACGUUCUCUGAGAGAUUUACA", "pre-steady-state target cleavage rate": "0.0633 ± 0.015"}, {"sequence": "UAGUGACAGUGGUUCUCUGAAAGAUUAACA", "pre-steady-state target cleavage rate": "< 0.0001"}, {"sequence": "UAGUGAAUCACCUUCUCUGAGAGAUUAACA", "pre-steady-state target cleavage rate": "0.232 ± 0.03"}, {"sequence": "UAGUGAGUCAGCUUCUCUGAGACAUUAACA", "pre-steady-state target cleavage rate": "0.0393 ± 0.0064"}, {"sequence": "UAGUGUGUCACGUUCUCUGAGAGAUUUACA", "pre-steady-state target cleavage rate": "0.0913 ± 0.017"}, {"sequence": "UAGUGUGUCACCUUCUGUGAGAGAUAAACA", "pre-steady-state target cleavage rate": "0.0484 ± 0.015"}, {"sequence": "UAGUGACUCACCUUCUUUGAGAGAUUAACA", "pre-steady-state target cleavage rate": "0.208 ± 0.015"}, {"sequence": "UAGUCAGUCUCCUUCUCUGAGAGAUUAACA", "pre-steady-state target cleavage rate": "0.162 ± 0.011"}, {"sequence": "UAGUGACACACCUUCUCUUAGAGAUUAACA", "pre-steady-state target cleavage rate": "0.0759 ± 0.0074"}, {"sequence": "UAGUCUGUCAGCUUCUCUGAGAGAUUUACA", "pre-steady-state target cleavage rate": "0.0747 ± 0.011"}, {"sequence": "UAGUGACAGACCUACACUGAGAGAUUAACA", "pre-steady-state target cleavage rate": "0.0226 ± 0.0077"}, {"sequence": "UAGUCUGUCACCUUGUCUGAGAGUUUAACA", "pre-steady-state target cleavage rate": "0.059 ± 0.018"}, {"sequence": "UAGUGACACACCUUCUCUGAGAGAUUAACC [g2:g22:cont:t1C]", "pre-steady-state target cleavage rate": "0.143 ± 0.022"}, {"sequence": "UAGUGACUCAGCUUCUCUGAGAGAUUAACA", "pre-steady-state target cleavage rate": "0.0935 ± 0.0069"}, {"sequence": "UAGUCUGUCACCUAGUCUGAGAGAUUAACA", "pre-steady-state target cleavage rate": "0.126 ± 0.012"}, {"sequence": "UAGUGAGUCACCUUCUCUGAGAGAUGAACA", "pre-steady-state target cleavage rate": "0.111 ± 0.029"}, {"sequence": "UAGUGACAGACCUUCUCAGUGAGAUUAACA", "pre-steady-state target cleavage rate": "0.00677 ± 0.0043"}, {"sequence": "UAGUGACACACCUUCUGUGAGAGAUUAUGA", "pre-steady-state target cleavage rate": "0.029 ± 0.012"}, {"sequence": "UAGUCUGUCACCGUUCUCUGAGAGAUUAACA", "pre-steady-state target cleavage rate": "0.133 ± 0.0094"}, {"sequence": "UAGUGAGACACCUUCUCUGAGAGAUUAACA", "pre-steady-state target cleavage rate": "0.185 ± 0.011"}, {"sequence": "UAGUGACAGUGGUUCCUCUGAGAGAUUAACA", "pre-steady-state target cleavage rate": "0.00471 ± 0.0018"}, {"sequence": "UAGUGACAGUGCUUCUCUGAGAGAUCAACA", "pre-steady-state target cleavage rate": "0.00536 ± 0.0024"}, {"sequence": "UAGUGACAGACCUUCUCUGAGAGUUUAACA", "pre-steady-state target cleavage rate": "0.0464 ± 0.011"}, {"sequence": "UAGUGUGUGUCCUUCUCUGAGAGAUUAAGA", "pre-steady-state target cleavage rate": "0.00638 ± 0.0038"}, {"sequence": "UAGUGACACACAUUCUCUGAGAGAUUAACA", "pre-steady-state target cleavage rate": "0.076 ± 0.01"}, {"sequence": "UAGUGACUCACCUUCUCUGAGAGAAAAACA", "pre-steady-state target cleavage rate": "0.0439 ± 0.017"}, {"sequence": "UAGUCUGUCACGUUCUCUCAGAGAUUAACA", "pre-steady-state target cleavage rate": "0.0372 ± 0.0049"}, {"sequence": "UAGUGACAGUCCUUCGCUGAGAGAUUAACA", "pre-steady-state target cleavage rate": "0.0352 ± 0.0063"}, {"sequence": "UAGUGACAGUCCUUCUUCUGAGAGAUUAACA", "pre-steady-state target cleavage rate": "0.00966 ± 0.0033"}, {"sequence": "UAGUGACAGACCUUCUCUGAGAGAUUUACA", "pre-steady-state target cleavage rate": "0.0731 ± 0.015"}, {"sequence": "UAGUGACUGACCUUCUCUGAGAGUUUAACA", "pre-steady-state target cleavage rate": "0.0895 ± 0.025"}, {"sequence": "UAGUGACUGACCUUCUCUCAGAGAUUAACA", "pre-steady-state target cleavage rate": "0.0436 ± 0.012"}, {"sequence": "UAGUGACAGUGGAUCUCAGAGACAUUAACA", "pre-steady-state target cleavage rate": "< 0.0001"}, {"sequence": "UAGUGAGAGACCUUCUCUGAGAGAUUAACA", "pre-steady-state target cleavage rate": "0.0931 ± 0.013"}, {"sequence": "UAGUGAGUCACCUUCACUGAGAGAUAAACA", "pre-steady-state target cleavage rate": "0.0245 ± 0.0095"}, {"sequence": "UAGUGAGUCACGAACUCUGAGAGAUUAACA", "pre-steady-state target cleavage rate": "0.0731 ± 0.0043"}, {"sequence": "UAGUCUGUCACUUUCUCUGAGAGAUUAACA", "pre-steady-state target cleavage rate": "0.188 ± 0.0089"}, {"sequence": "UAGUGACAGACCUUCACUGAGAGAUAAACA", "pre-steady-state target cleavage rate": "0.018 ± 0.0081"}, {"sequence": "UAGUGUGUCACCUUCUCUGAGAGAUUUAACA", "pre-steady-state target cleavage rate": "0.391 ± 0.052"}, {"sequence": "UAGUGACUCACCUUCUCUGAGAGAAUUAACA", "pre-steady-state target cleavage rate": "0.19 ± 0.035"}, {"sequence": "UAGUGACUCUCCUUCUCUGAGAGAUUAUCA", "pre-steady-state target cleavage rate": "0.0488 ± 0.0084"}, {"sequence": "UAGUGACACACCUUCAGUGAGAGAUUUUGA", "pre-steady-state target cleavage rate": "0.00783 ± 0.0054"}, {"sequence": "UAGUGACAGUCCUUGUCUCAGAGAUUAACA", "pre-steady-state target cleavage rate": "0.009 ± 0.0037"}, {"sequence": "UAGUCUGUCACCUUGUCUGAGAGAUAAACA", "pre-steady-state target cleavage rate": "0.0456 ± 0.012"}, {"sequence": "UAGUCUCACACCUUCUCUGAGAGAUUAAGA", "pre-steady-state target cleavage rate": "0.0183 ± 0.007"}, {"sequence": "UAGUGACAGUGGAUCUCUGAGAGUUAAACA", "pre-steady-state target cleavage rate": "< 0.0001"}, {"sequence": "UAGUGUGUCAGCUUCUCUCAGAGAUUAACA", "pre-steady-state target cleavage rate": "0.0558 ± 0.0084"}, {"sequence": "UAGUGAGUCACCUUCUCUGAGAGAUUAACCA", "pre-steady-state target cleavage rate": "0.219 ± 0.017"}, {"sequence": "UAGUCUCUGACCUUCUCUGAGAGAUUAACA", "pre-steady-state target cleavage rate": "0.111 ± 0.0053"}, {"sequence": "UAGUGAGUGACCUACUCUGAGAGAUUAACA", "pre-steady-state target cleavage rate": "0.111 ± 0.011"}, {"sequence": "UAGUGACAGACCUUCUCUGCGAGAUUAACA", "pre-steady-state target cleavage rate": "0.0565 ± 0.016"}, {"sequence": "UAGUGUGUCACCUUCUCAGAGAGAUUAUGA", "pre-steady-state target cleavage rate": "0.0821 ± 0.027"}, {"sequence": "UAGUGUGUCACCUUCUCUGAGACGAUUAACA", "pre-steady-state target cleavage rate": "0.0543 ± 0.011"}, {"sequence": "UAGUGACAGACCUUCUCUGAGAGAUUCACA", "pre-steady-state target cleavage rate": "0.0634 ± 0.023"}, {"sequence": "UAGUGACUGACGUUCUCUGAGAGAUUAACA", "pre-steady-state target cleavage rate": "0.127 ± 0.01"}, {"sequence": "UAGUGUGUCACCAUCUCUGAGAGAUUAAGA", "pre-steady-state target cleavage rate": "0.0441 ± 0.013"}, {"sequence": "UAGUGACUCAGCUUCACUGAGAGAUUAACA", "pre-steady-state target cleavage rate": "0.103 ± 0.018"}, {"sequence": "UAGUGACACACCUUCUCUGUGAGAAUAACA", "pre-steady-state target cleavage rate": "0.0221 ± 0.0087"}, {"sequence": "UAGUCUGUCUCCUUCUCUGAGAGAUUUACA", "pre-steady-state target cleavage rate": "0.101 ± 0.016"}, {"sequence": "UAGUGAGUCAUCCUUCUCUGAGAGAUUAACA", "pre-steady-state target cleavage rate": "0.0487 ± 0.0084"}, {"sequence": "UAGUGUCAGACCUUCUCUGAGAGAUUAAGA", "pre-steady-state target cleavage rate": "0.0369 ± 0.01"}, {"sequence": "UAGUGACACUCCUUCUCUGAGAGAUUAACA", "pre-steady-state target cleavage rate": "0.126 ± 0.0098"}, {"sequence": "UAGUGAGACACGUUCUCUGAGAGAUUAACA", "pre-steady-state target cleavage rate": "0.117 ± 0.0093"}, {"sequence": "UAGUCUGUCUCCUUCUCUGAGACAUUAACA", "pre-steady-state target cleavage rate": "0.0235 ± 0.0056"}, {"sequence": "UAGUGUGUCAGCUUCUCUGACAGAUUAACA", "pre-steady-state target cleavage rate": "0.0353 ± 0.0088"}]}]}
